Laboratory results from PubChem BioAssay (NCATS).
Values joined by “and” are separate entries in the source; they are usually repeats but may differ in a detail not shown here. Equal values may be shown once. Inconclusive means that the source gave no clear call. Such entries were picked first, then a sample of the others. For some assays here: Potencies of inconclusive entries are doubtful fits and often do not repeat. For some assays here: A note “side channel” means that the fit belongs to a control or component signal, not to the main read-out. Active and inactive are the calls of the source. Unless noted, calls follow the shape of the dose curve; as a rule, active = well fitted curve in the direction sought with a large enough effect; inconclusive = small, poorly fitted or top-dose-only effect, or another doubt; inactive = no such curve, though single readings can be large; an effect the other way counts as inactive or inconclusive.

Columns and labels:
[1] = qHTS of pediatric cancer cell lines to identify multiple opportunities for drug repurposing: Primary screen for BT-12 cells (AID 1347101); details: BT-12 viability, CellTiter-Glo luminescence, 48 h; at 57.3 µM (top of the series);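 also: plate controls were DMSO for no effect and bortezomib positive control for full effect; nearly all actives have a fitted effect of over 25% in size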
How it was run: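 Cells (500-1,000/well) rested 5 h, then received compounds for 48 h; metabolically active cells were measured by CellTiter-Glo luminescence. Final concentrations spanned up to 46 µM (MIPE, 11-point) or 0.59 nM-46 µM (NPC, 8-point) in primary screens, 11-point in follow-ups.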

Tov112D = experiment: Primary qHTS to identify gynecologic anti-cancer compounds using libraries of approved drugs and bioactive compounds (AID 1345084); details: Gynecologic cancer cell panel viability, ATPlite luminescence, 48 h; at 57.5 µM (top of the series) unless noted; also: % is scaled to controls: 0 for no effect and ±100 for the full control effect; nearly all actives have a fitted effect of over 55% in size
How it was run: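 48 h compound exposure at 37 C, 5% CO2; five-point qHTS. ATPlite luminescence readout of cell ATP.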

[2] = Primary fluorescence-based thiol-reactive (MSTI) qHTS assay for identification of artifact compounds. (AID 1845221); also: potency is read from the fitted curve at half-maximal effect;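 also: thiol-reactive compounds lower the probe fluorescence signal; nearly all actives have a fitted effect of over 65% in size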
How it was run: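 First, 4 uM MSTI in 2% DMSO/PBS pH 7.4 was dispensed; next, compounds were added; then plates sat 1 h at room temperature without light. Finally, emission at 598 nm was recorded.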

[3] = qHTS of pediatric cancer cell lines to identify multiple opportunities for drug repurposing: Primary screen for LAN-5 cells (AID 1347100);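 also: plate controls were DMSO neutral control for no effect and bortezomib positive control for full effect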
How it was run: (§1)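 Cells (500-1,000/well) in growth media were settled 5 h at 37 degrees C, then given compounds for 48 h. Viability was read as CellTiter-Glo luminescence. Primary runs used MIPE at 11 points (0.78 nM-46 µM) and NPC at 8 points (0.59 nM-46 µM); follow-ups used 11 points.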

[4] = biological target: Estrogen receptor (Homo sapiens) (UniProt P03372); experiment: qHTS assay for small molecule agonists of estrogen receptor alpha signaling (AID 588514; calls by dose curve;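 also: 0% = vehicle only and 100% = reference agonist; nearly all actives have a fitted effect of over 70% in size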); details: ER-alpha-UAS-bla HEK293, beta-lactamase ratio, 18 h; activation: at 76.8 µM (top of the series), percent of full estradiol response, vehicle zero unless noted
How it was run: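 ER-alpha-UAS-bla GripTite HEK 293 cells in medium with 2% charcoal/dextran-treated FBS were treated with compound titrations at 37 C for 18 hrs; beta-lactamase reporter read by CCF4 fluorescence after 2 hrs at RT.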

[5] = biological target: Glucocorticoid receptor (Homo sapiens) (UniProt P04150); experiment: qHTS assay for small molecule agonists of glucocorticoid receptor signaling (AID 588532; active = well fitted curve in the direction sought with a large enough effect in the signal ratio, with a control signal flat; inconclusive = small, poorly fitted or top-dose-only effect, or a change in a side signal; inactive = no such curve, though single readings can be large or run the other way; the % refers to the signal ratio; also: potency is read from the fitted curve at half-maximal effect); details: HeLa MMTV-bla, beta-lactamase ratio, agonist, 18 h; activation: active compounds read high, percent of dexamethasone control, DMSO zero
How it was run: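 MMTV-bla HeLa, beta-lactamase reporter; medium with 1% charcoal/dextran-stripped FBS; cpds up to 92 uM, 18 h, 37 C; CCF4 readout 460/530 nm; Hill fit → EC50, efficacy vs 0.1 uM dexamethasone = 100%.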

[6] = system: Zika virus NS2B-NS3 protease (unlinked complex); experiment: Primary screen GU Rhodamine qHTS for Zika virus inhibitors: Unlinked NS2B-NS3 protease assay (AID 1347159); also: potency is read from the fitted curve at half-maximal effect; nearly all actives have a fitted effect of over 60% in size
How it was run: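 Noncovalent NS2B hydrophilic domain–NS3 protease domain complex (25 nM) preincubated 15 min at room temperature with compounds (up to 114 microM) in 10 mM Tris-HCl pH 8.0, 0.01% Tween 20; 1.5 microM Rhodamine110 substrate added, fluorescence change over 15 min fitted to Hill equation.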

[7] = system: Zika virus NS2B-NS3 protease (linked construct); experiment: Primary screen NINDS Rhodamine qHTS for Zika virus inhibitors (AID 1347160); also: potency is read from the fitted curve at half-maximal effect; nearly all actives have a fitted effect of over 55% in size
How it was run: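 Purified linked NS2B-NS3 protease (NS2B hydrophilic domain joined to NS3 protease by flexible linker), 25 nM in 10 mM Tris-HCl pH 8.0, 0.01% Tween 20. Compounds titrated, 15 min preincubation at room temperature; 1.5 microM Rhodamine110 substrate, FITC fluorescence change over 15 min.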

[8] = biological target: Cytochrome P450 3A4 (Homo sapiens) (UniProt P08684); experiment: qHTS Assay for Inhibitors and Substrates of Cytochrome P450 3A4 (AID 884); also: % is scaled to controls: 0 for no effect and ±100 for the full control effect; nearly all actives have a fitted effect of over 50% in size
How it was run: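 20 nM human CYP3A4 with 25 uM Luciferin-PPXE (at KM) in 200 mM KPO4, preincubated 10 min with compound; NADPH regeneration started a 60 min RT reaction. Luciferin detected by luminescence, normalized to 57 uM ketoconazole as full inhibition.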

[9] = qHTS of pediatric cancer cell lines to identify multiple opportunities for drug repurposing: Primary screen for MG 63 (6-TG R) cells (AID 1347105); also: % is scaled to controls: 0 for no effect and ±100 for the full control effect; nearly all actives have a fitted effect of over 50% in size
How it was run: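 Viability was measured as metabolically active cells after 48 hours of treatment, read by CellTiter-Glo luminescence. Compounds were tested at multiple final concentrations, giving concentration-response curves.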

[10] = Primary redox qHTS assay for identification of artifact compounds. (AID 1845223); details: Amplex Red/HRP redox cycling with DTT, fluorescence; also: potency is read from the fitted curve at half-maximal effect
How it was run: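 Amplex Red (25 uM) and HRP (250 mU/mL) in HBSS, with compounds for 15 min, then 250 uM DTT for 30 min, room temperature, dark. Fluorescence 525/598 nm read; normalized to DMSO and 10 uM DA3003; Hill fit.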

[11] = biological target: ATP-dependent 6-phosphofructokinase (Trypanosoma brucei brucei) (UniProt O15648); experiment: qHTS Assay to Find Inhibitors of T. brucei phosphofructokinase: hit validation (AID 492961);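 also: luminescence reports ADP formed as PFK phosphorylates fructose-6-phosphate with ATP; % is scaled to controls: 0 for no effect and ±100 for the full control effect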
How it was run: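 PFK 1.25 nM, F6P 0.5 mM, ATP 0.1 mM, MgCl2 5 mM, 0.1 M TEA pH 8.0, Tween20 0.01%, BSA 0.1%; 45 min RT. ADP-Glo two-step detection, luminescence. qHTS titration; curve fitting with curve-class categorization.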

[12] = Tertiary RLuc qRT-PCR qHTS assay for Zika virus inhibitors (AID 1347169); details: infected Vero cells, reporter luminescence, 48-72 h; activity change, negative = inhibition: at 45.9 µM (top of the series); also: potency is read from the fitted curve at half-maximal effect; nearly all actives have a fitted effect of over 55% in size
How it was run: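 Vero cells (1,000 per well) plated overnight at 37 degrees C, treated with compound in DMSO, then infected with recombinant ZIKV-RLuc (Cambodian) at MOI 1-2 for 48-72 hrs. Live-cell Renilla luciferase substrate added; luminescence read after 1-1.5 hrs.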

[13] = qHTS of pediatric cancer cell lines to identify multiple opportunities for drug repurposing: Primary screen for Rh30 cells (AID 1347107); also: % is scaled to controls: 0 for no effect and ±100 for the full control effect; nearly all actives have a fitted effect of over 75% in size
How it was run: as §1

[14] = qHTS to identify inhibitors of the type 1 interferon - major histocompatibility complex class I in skeletal muscle: primary screen against the NCATS Mechanism Interrogation Plate v5.0 (MIPE) Libary (AID 1347411); details: iHSKM cells + IFN-b, HiBiT-tagged MHC-I luminescence, 24 h; activity change, negative = inhibition: at 45.8 µM (top of the series); also: nearly all actives have a fitted effect of over 65% in size; also: potency is read from the fitted curve at half-maximal effect;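 as to activity change, negative = inhibition: plate controls were vehicle for no effect and reference inhibitor for full effect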
How it was run: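 Immortalized human C25cl48 myoblasts with HiBit knocked into endogenous HLA-B*08:01 were stimulated with 4.0 ng/ml IFN-beta and exposed to compounds (11-point 1:3 titration, top 46 uM final) for 24 hrs at 37 C; HiBiT lytic luminescence measured.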

[15] = qHTS Assay for Lipid Storage Modulators (AID 1519; calls by dose curve; also: % is scaled to controls: 0 for no effect and ±100 for the full control effect); details: Drosophila S3 cells, BODIPY lipid droplet/cell ratio, laser cytometry, cells loaded with oleic acid; activity change, negative = inhibition: at 57.5 µM (top of the series) unless noted
How it was run: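 Cells seeded at 5,000 per well were treated with compounds over a concentration series and loaded with oleic acid (400 uM, as added). Lipid droplet fluorescence (488 nm excitation, 500-530 nm channel) was read by laser-scanning cytometry and normalized to 20 uM Triacsin C.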

[16] = biological target: DNA repair nuclease/redox regulator APEX1 (Homo sapiens) (UniProt P27695); experiment: qHTS Validation Assay for Inhibitors of the Human Apurinic/apyrimidinic Endonuclease 1 (APE1) (AID 1705; also: potency is read from the fitted curve at half-maximal effect;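 as to activity change, negative = inhibition: TAMRA fluorescence gain over two minutes as APE1 cuts a quenched THF abasic duplex; % is scaled to controls: 0 for no effect and ±100 for the full control effect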)
How it was run: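 Human APE1 was preincubated with compound for 15 min at room temperature, then 50 nM (final) THF-abasic double-stranded DNA substrate bearing 5'-TAMRA and 3'-BHQ-2 was added. Incision-driven fluorescence rise (ex 525/em 598 nm) was read kinetically.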

[17] = biological target: Endonuclease 4 (Escherichia coli (strain K12)) (UniProt P0A6C1); experiment: Counterscreen for APE1 Inhibitors: qHTS Validation Assay for Inhibitors of Endonuclease IV (AID 1708); also: potency is read from the fitted curve at half-maximal effect
How it was run: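 2 nM enzyme was preincubated with compounds for 15 min at room temperature in 50 mM Tris-HCl pH 7.5, 50 mM NaCl, 2 mM MgCl2, 1 mM DTT, 0.01% Tween-20. 50 nM THF-abasic TAMRA/BHQ-2 duplex substrate started the reaction.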

[18] = qHTS for differential inhibitors of proliferation of Plasmodium falciparum line W2 (AID 1883); details: Potency: Plasmodium falciparum W2 proliferation inhibition;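 also: parasites grown with compound for 72 h before lysis and staining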; also: potency is read from the fitted curve at half-maximal effect;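 as to activity change, negative = inhibition: 0% = vehicle wells and -100% = control inhibitor wells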
[19] = qHTS assay for small molecule activators of the nuclear factor-kappa B (NF-kB) signaling pathway (AID 651749; active = well fitted activation curve with a large enough effect in the signal ratio; inconclusive = small, poorly fitted or top-dose-only effect, or a change in a side signal; the % refers to the signal ratio; also: % of control where 0% means no effect); details: NF-kB-bla ME-180 cells, beta-lactamase FRET ratio, 16 h; activation: active compounds read high
How it was run: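 ME-180 cells stably carrying a beta-lactamase reporter under an NF-kB response element were exposed to compound or DMSO vehicle for 16 hr at 37C, 5% CO2. Pathway activation was read by FRET, since reporter expression disrupts FRET.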
Tags tell the direction and shape of the fitted curve or compound fluorescence and quenching.

Chain of UniProt P03372 (P03372 whole entry, looked up): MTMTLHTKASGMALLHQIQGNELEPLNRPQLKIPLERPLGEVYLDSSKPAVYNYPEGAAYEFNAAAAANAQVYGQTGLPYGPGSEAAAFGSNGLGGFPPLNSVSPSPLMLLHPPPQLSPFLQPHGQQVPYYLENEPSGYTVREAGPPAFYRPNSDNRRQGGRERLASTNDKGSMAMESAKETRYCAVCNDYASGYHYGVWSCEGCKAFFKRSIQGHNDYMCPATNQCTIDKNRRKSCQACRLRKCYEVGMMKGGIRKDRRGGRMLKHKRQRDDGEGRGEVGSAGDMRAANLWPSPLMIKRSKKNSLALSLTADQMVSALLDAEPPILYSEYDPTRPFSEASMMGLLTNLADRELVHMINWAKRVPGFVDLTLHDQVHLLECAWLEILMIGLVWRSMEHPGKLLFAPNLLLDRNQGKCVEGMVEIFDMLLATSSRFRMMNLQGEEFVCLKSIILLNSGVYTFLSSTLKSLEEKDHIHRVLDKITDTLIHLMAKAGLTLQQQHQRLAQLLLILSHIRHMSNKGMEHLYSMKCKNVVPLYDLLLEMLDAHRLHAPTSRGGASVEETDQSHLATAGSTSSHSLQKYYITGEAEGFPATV
Chain of UniProt P27695 (P27695 whole entry, looked up): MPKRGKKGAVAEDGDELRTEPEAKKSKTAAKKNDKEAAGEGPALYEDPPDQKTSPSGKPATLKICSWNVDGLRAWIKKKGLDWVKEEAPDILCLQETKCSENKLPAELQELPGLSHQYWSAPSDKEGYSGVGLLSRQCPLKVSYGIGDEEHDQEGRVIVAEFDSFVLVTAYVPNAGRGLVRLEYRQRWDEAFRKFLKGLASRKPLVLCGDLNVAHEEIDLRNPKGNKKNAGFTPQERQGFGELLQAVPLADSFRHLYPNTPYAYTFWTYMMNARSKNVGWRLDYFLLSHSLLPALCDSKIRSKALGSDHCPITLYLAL
Chain of UniProt P08684 (P08684 whole entry, looked up): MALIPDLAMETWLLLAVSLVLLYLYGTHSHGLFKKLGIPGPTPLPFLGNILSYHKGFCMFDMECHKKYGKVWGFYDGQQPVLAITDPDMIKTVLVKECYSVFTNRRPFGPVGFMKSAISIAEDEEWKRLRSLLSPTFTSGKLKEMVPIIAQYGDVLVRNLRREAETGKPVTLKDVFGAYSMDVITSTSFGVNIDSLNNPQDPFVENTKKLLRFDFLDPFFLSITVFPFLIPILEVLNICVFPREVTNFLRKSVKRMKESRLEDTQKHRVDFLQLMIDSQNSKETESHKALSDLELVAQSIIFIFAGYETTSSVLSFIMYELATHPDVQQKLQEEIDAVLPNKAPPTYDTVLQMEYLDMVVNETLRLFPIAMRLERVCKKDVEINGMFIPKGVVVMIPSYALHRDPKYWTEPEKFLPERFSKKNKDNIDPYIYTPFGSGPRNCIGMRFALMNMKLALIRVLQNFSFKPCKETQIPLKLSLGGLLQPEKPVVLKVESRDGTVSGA
Chain of UniProt O15648 (O15648 whole entry, looked up): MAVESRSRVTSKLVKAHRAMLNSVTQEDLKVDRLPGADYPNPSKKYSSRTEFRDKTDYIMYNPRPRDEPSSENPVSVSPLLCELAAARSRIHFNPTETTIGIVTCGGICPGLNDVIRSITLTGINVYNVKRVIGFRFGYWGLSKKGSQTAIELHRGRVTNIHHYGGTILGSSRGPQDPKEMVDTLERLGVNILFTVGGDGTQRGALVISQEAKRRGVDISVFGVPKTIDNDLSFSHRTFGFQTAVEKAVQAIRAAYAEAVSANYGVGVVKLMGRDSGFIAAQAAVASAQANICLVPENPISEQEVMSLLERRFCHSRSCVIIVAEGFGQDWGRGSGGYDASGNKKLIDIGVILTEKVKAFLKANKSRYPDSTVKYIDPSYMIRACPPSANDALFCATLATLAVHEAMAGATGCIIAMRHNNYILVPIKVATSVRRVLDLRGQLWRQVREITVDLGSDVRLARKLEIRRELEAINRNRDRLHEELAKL

Question: For `O=C(CCCCl)c1ccc(F)cc1`, which activity change, negative = cytotoxic [1] is on record?
Answer: inactive: 8.69%

Question: With `Cc1cn(C[C@H](N)C(=O)O)c(=O)n(Cc2cc(-c3ccccc3)sc2C(=O)O)c1=O` as the molecule, how does the activity change, negative = cytotoxicity (Tov112D) read?
Answer: inactive: 14.9%

Question: Which Potency [2] does the source give for `CN1C(=O)N(c2ccc(C#N)c(C(F)(F)F)c2)C(=O)[C@]1(CO)c1ccccc1` here?
Answer: inactive

Question: Which Potency [3] does the source give for `Fc1cc(Br)ccc1CBr` here?
Answer: inactive

Question: What does the source list for `O=S(=O)(O)C(F)(F)C(F)(F)C(F)(F)C(F)(F)F`?
Answer: activation [4]: inconclusive: -1.41% and inconclusive: 61.2%; Potency [5]: inconclusive: 447 nM [side channel, falling, full curve, poor fit]

Question: What does the source list for `CC1=CC2/C=C(\C)CCC(O)C3OC(C)(C)OC3CC(=O)OC23C(=O)NC(CC(C)C)C3C1C` (stereo unspecified)?
Answer: Potency [6]: inconclusive: 12.6 µM [inhibitor, full curve]; Potency [7]: inconclusive: 17.8 µM [inhibitor, single point]; Potency [2]: inconclusive: 18.4 µM [inhibitor, single point]; activity change, negative = cytotoxicity (Tov112D): inactive: 0.348% [at 25.3 µM]

Question: Which results are given for `c1ccc2c(c1)sc1ccccc12`?
Answer: Potency [8]: inactive; Potency [9]: inactive

Question: For `CC(=O)OC1CC(O)C2(C)C(CC(OC(C)=O)C3(C)C2CCC2(C)C(c4ccoc4)C(=O)C4OC423)C1(C)C` (stereo unspecified), which Potency [10] is on record?
Answer: inconclusive: 3.67 µM [activator, partial curve, poor fit]

Question: For `O=[N+]([O-])c1cc(I)c(O)c(I)c1`, which Potency [11] is on record?
Answer: inactive

Question: Which Potency [6] does the source give for `CCCCCOc1cc2c(cc1-c1cc(/C=C/C(=O)O)ccc1O)C(C)(C)CCC2(C)C` here?
Answer: active: 2.51 µM

Question: And the Potency [7]?
Answer: active: 3.16 µM

Question: What about the Potency [12] of the same molecule?
Answer: inconclusive: 18.6 µM [inhibitor, single point]

Question: What about the Potency [10] of the same molecule?
Answer: inconclusive: 5.97 µM [activator, partial curve, poor fit]

Question: For `CC(CC(C(N)=O)(c1ccccc1)c1ccccc1)N(C)C` (stereo unspecified), which Potency [13] is on record?
Answer: inactive

Question: With `CC1=C2C[C@H]3[C@@H](CC=C4C[C@@H](O)CC[C@@]43C)[C@@H]2CC[C@]12O[C@@H]1C[C@H](C)CN[C@H]1[C@H]2C` as the molecule, how does the Potency [14] read?
Answer: inactive

Question: For `C=C(C)[C@H]1CN[C@H](C(=O)O)[C@H]1CC(=O)O`, which Potency [15] is on record?
Answer: inactive

Question: And the Potency [16]?
Answer: inactive

Question: And the Potency [17]?
Answer: inconclusive: 15.8 µM [inhibitor, partial curve, poor fit]

Question: And the Potency [18]?
Answer: inactive

Question: What about the Potency [13] of the same molecule?
Answer: inactive

Question: With `NC1=NC(=O)C(c2ccccc2)O1` (stereo unspecified) as the molecule, how does the Potency [3] read?
Answer: inactive

Question: What about the activity change, negative = cytotoxic [1] of the same molecule?
Answer: inactive: 16.1%

Question: With `CN[C@@H](C)[C@H](O)c1ccccc1` as the molecule, how does the Potency [18] read?
Answer: inconclusive: 17.8 µM [inhibitor, single point]

Question: For `CCC(=O)O[C@@](Cc1ccccc1)(c1ccccc1)[C@@H](C)CN(C)C`, which Potency [11] is on record?
Answer: inactive

Question: With `CC(C)NCC(O)c1ccc([N+](=O)[O-])cc1` (stereo unspecified) as the molecule, how does the Potency [9] read?
Answer: inactive

Question: With `OCCOc1ccccc1` as the molecule, how does the Potency [8] read?
Answer: inactive

Question: And the activation [4]?
Answer: inconclusive: -5.28% [at 2.03 mM, percent of full estradiol response, vehicle zero]

Question: What does the source list for `CNC(=O)OCC[N+](C)(C)C`?
Answer: activity change, negative = inhibition [15]: inconclusive: -0.628%; Potency [16]: inconclusive: 39.8 µM [inhibitor, single point]

Question: What does the source list for `COC(=O)c1ccccc1C(=O)OC`?
Answer: Potency [5]: inconclusive: 1 µM [side channel, falling, full curve, poor fit] and inconclusive: 447 nM [side channel, falling, full curve, poor fit]; activation [19]: inactive: -0.143% and inactive: 1.34%

Question: For `O=P(O)(O)C(Cl)(Cl)P(=O)(O)O`, which Potency [17] is on record?
Answer: inconclusive: 12.6 µM [inhibitor, partial curve, poor fit]

Question: Which Potency [14] does the source give for `C/C(=C\c1csc(C)n1)[C@@H]1C[C@@H]2O[C@]2(C)CCC[C@H](C)[C@H](O)[C@@H](C)C(=O)C(C)(C)[C@@H](O)CC(=O)O1` here?
Answer: inconclusive: 0.0147 µM [inhibitor, full curve]

Question: Which activation [19] does the source give for `Clc1ccccc1Cl` here?
Answer: inactive: -0.0325%

Question: For `C[C@H]1[C@H]2Cc3ccc(O)cc3[C@]1(C)CCN2CCc1ccccc1`, which Potency [12] is on record?
Answer: active: 47.5 µM

Question: With `O=Cc1ccccc1` as the molecule, how does the activation [19] read?
Answer: inconclusive: 1.15%
